# Data published in IntAct's records for PubMed 20485341.
# B1: Myeloid differentiation primary response protein MyD88 (Homo sapiens), Q99836-1 (parent)
# chain: MAAGGPGAGSAAPVSSTSSLPLAALNMRVRRRLSLFLNVRTQVAADWTALAEEMDFEYLEIRQLETQADPTGRLLDAWQGRPGASVGRLLELLTKLGRDDVLLELGPSIEEDCQKYILKQQQEEAEKPLQVAAVDSSVPRTAELAGITTLDDPLGHMPERFDAFICYCPSDIQFVQEMIRQLEQTNYRLKLCVSDRDVLPGTCVWSIASELIEKRCRRMVVVVSDDYLQSKECDFQTKFALSLSPGAHQKRLIPIKYKAMKKEFPSILRFITVCDYTNPCTKSWFWTRLAKALSLP
# partner: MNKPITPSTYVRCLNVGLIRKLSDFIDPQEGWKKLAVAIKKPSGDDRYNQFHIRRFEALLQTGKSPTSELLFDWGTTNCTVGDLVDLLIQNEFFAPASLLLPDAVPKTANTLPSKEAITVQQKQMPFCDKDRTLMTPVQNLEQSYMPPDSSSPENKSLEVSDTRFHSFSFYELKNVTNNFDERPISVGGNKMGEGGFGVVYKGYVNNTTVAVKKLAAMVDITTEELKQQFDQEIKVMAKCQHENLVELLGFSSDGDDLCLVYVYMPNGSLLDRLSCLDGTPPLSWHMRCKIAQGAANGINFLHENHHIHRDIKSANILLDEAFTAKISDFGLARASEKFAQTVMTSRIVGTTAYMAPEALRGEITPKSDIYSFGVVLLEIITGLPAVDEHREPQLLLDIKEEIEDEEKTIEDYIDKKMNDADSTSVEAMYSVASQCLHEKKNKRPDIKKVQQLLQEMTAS
# Variants of: B1
# Conditions: with irak4_human IRAK4, Q9NWZ3
row,Variant,effect of a mutation on the interaction
1,R62E,disrupting interaction
2,I61A,disrupting interaction
3,V43D,disrupting interaction
4,D55A,disrupting interaction
5,E52K,disrupting interaction
6,Y58A;R62A,disrupting interaction
7,A44E,disrupting interaction
